Among all 48,000 compounds or so, about 450 (0.94%) were called active. Not shown: some 19% with an inconclusive outcome. Calls come from the whole dose curve; as a rule, active = well fitted inhibition curve with a large enough effect; inconclusive = small, poorly fitted or top-dose-only effect; inactive = no such curve, though single readings can be large or run the other way. The list shows a part of the results.
Experiment: Primary qHTS for Identification of Small Molecule Inhibitors of Huntingtin Promoter Activity; note: nearly all actives have a fitted effect of over 50% in size
Conditions: HEK293 HTT promoter firefly luciferase reporter (activity 0% = vehicle and -100% = no light), 24 h; series mostly up to 57.5 µM; activity change, negative = inhibition: at the top concentration
Outline: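 Luminescence was read after Dual-Glo reagent and a 10 min room-temperature incubation. Values were normalized to vehicle (0% activity) and zero RLU (-100% activity). Reporter HEK293 cells had been exposed to compounds (up to 57.5 uM final) for 24 h.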
Potency is the fitted concentration of half-maximal effect.

SMILES	activity change, negative = inhibition	Potency
O=c1oc2c3c(ccc2c2ccccc12)OCN(Cc1cccc(Cl)c1)C3	inactive: -4.26%	–
Cc1c(CCNC(=O)Cc2ccccc2)sc2nc(-c3ccc(F)cc3)nn12	inactive: -14.9%	–
CCOc1ccccc1N(C)C(=O)C1CCCN(c2ncnc3onc(-c4ccc(F)cc4)c23)C1 (stereo not drawn)	inactive: -3.54%	–
O=C(CN1CCN(Cc2ccc(Cl)cc2)C1=O)NCc1ccc(F)cc1	inactive: -28.4%	–
CCOc1ccc(CNC(=O)c2cc3c(=O)n(C)c4ccccc4c3s2)cc1	inactive: -3.1%	–
Cc1ccc(NC(=O)Cn2c(=O)n(Cc3ccco3)c(=O)c3ccccc32)cc1	inactive: -4.92%	–
Cc1ccc(NC(=O)C2CCCN2S(=O)(=O)c2cccc3cccnc23)cc1 (stereo not drawn)	inactive: -16%	–
COc1ccc(-c2ccnc3c(-c4ccc(F)cc4)c(C)nn23)cc1OC	inactive: -3.48%	–
CC1CN(C(=O)N2CCC(C(=O)NC3CCCCCC3)CC2)c2cc(Cl)ccc2O1 (stereo not drawn)	inactive: 1.94%	–
Cc1cc(C)n2nc(CNS(=O)(=O)c3ccc(Cl)cc3)nc2n1	inactive: 4.02%	–
O=C(Cn1cc(SCc2cccc(Cl)c2)c2ccccc21)N1CCOCC1	inactive: 40.5%	–
O=c1[nH]c(SCc2ccc(F)cc2)nc2c1CCCC2	inactive: -20.2%	–
COc1cc(C(=O)NC2CC(=O)N(c3cccc(F)c3)C2)cc(OC)c1OC (stereo not drawn)	inactive: 9.26%	–
CCC(=O)N1CCc2cc(Br)cc(S(=O)(=O)N3CCN(c4ccccc4)CC3)c21	inactive: 6.47%	–
CCc1nnc2c(NCc3ccc(F)cc3)nc3ccccc3n12	inactive: -12.9%	–
CCOc1ccc2nc(N3CCCC(C(=O)Nc4ccc(Br)c(C)c4)C3)sc2c1 (stereo not drawn)	inactive: 21.4%	–
COc1ccc2c(c1)CC(C(=O)N1CCC(C(N)=O)CC1)CO2 (stereo not drawn)	inactive: -11.7%	–
COc1ccc2c(c1)NC(c1ccc(OCC(C)C)cc1)=NC(c1ccncc1)=N2	inactive: -19%	–
CCOc1ccc(-c2n[nH]c3c2C(c2ccccc2OC)N(c2ccc(Br)cc2)C3=O)cc1 (stereo not drawn)	inactive: 0.501%	–
COc1ccccc1N1CCN(C(=O)c2oc3ccccc3c2NC(=O)C(C)Oc2ccccc2)CC1 (stereo not drawn)	inactive: -15.2%	–
O=C(Nc1cc(Cl)cc(Cl)c1)c1ccc(F)c(S(=O)(=O)N2CCCCCC2)c1	inactive: -9.54%	–

SMILES	activity change, negative = inhibition	Potency
COc1cc2c(=O)n(Cc3ccccc3)c(=O)n(CC(=O)Nc3cc(C(F)(F)F)ccc3Cl)c2cc1OC	inactive: -7.27%	–
O=C(Cn1cccc1C(=O)c1ccccc1)NCc1ccc(F)cc1	inactive: 5.25%	–
COC(=O)c1cc2oc(C)cc2n1Cc1c(C)cc(C)cc1C	inactive: -0.566%	–
COc1ccc(C2c3c(n(C)c4ccccc34)C(=O)N2CC(=O)Nc2ccc(Cl)cc2)cc1 (stereo not drawn)	inactive: -30.4%	–
CCOC(=O)c1c(C)oc2ncnc(NCCc3ccccc3)c12	inactive: -17.3%	–
CCc1ccc(N2CCn3c2nc2c3c(=O)n(Cc3cccc(C)c3)c(=O)n2C)cc1	inactive: 0.101%	–
COc1cc2nc(SCC(=O)Nc3ccc(F)cc3)n3nc(CCn4c(C)nc5ccccc54)nc3c2cc1OC	inactive: 1.33%	–
Cc1ccc(OC(=O)c2snnc2C)cc1C	inactive: -3.45%	–
Cc1ccc(NC(=O)C(=O)NCC(c2ccc3c(c2)OCO3)N2CCOCC2)c(C)c1 (stereo not drawn)	inactive: -8.87%	–
O=C(CSc1ncc2c(n1)-c1ccccc1N(Cc1ccc(F)cc1)S2(=O)=O)c1ccc(Br)cc1	inactive: -10.7%	–
CCCN1CCN(CCNC(=O)Nc2cc(OC)cc(OC)c2)CC1	inactive: -1.42%	–
Cc1cccc(NC(=O)CSc2nc3ccc(NC(=O)c4cccs4)cc3s2)c1	inactive: -2.16%	–
CC(C)c1ccc(OCc2cc(=O)n3c4c(sc3n2)CCCC4)cc1	inactive: -4.29%	–
COc1ccccc1NC(=O)CN(c1ccc(C(C)C)cc1)S(=O)(=O)c1c(C)noc1C	inactive: -23.6%	–
CCOC(=O)c1ccc(CSc2nnc3cc(C)c4ccccc4n23)cc1	inactive: -9.88%	–
COc1ccc(-c2oc3ncn4nc(-c5ccc(Cl)cc5)nc4c3c2-c2ccc(OC)cc2)cc1	inactive: -9.99%	–
CCN(CC)CCN(C(=O)c1ccco1)c1nc2c(C)cccc2s1	inactive: 24.7%	–
CCCCOC(=O)CC(CC(=O)OCCCC)(OC(C)=O)C(=O)OCCCC	inactive: 1.12%	–
COc1cccc(CNC(=O)COc2cc(=O)n(C)c3ccccc23)c1	inactive: 12.6%	–
COc1ccc(S(=O)(=O)Nc2ccc(-c3cn4c(C)csc4n3)cc2)cc1	inactive: -16.1%	–
Cc1ccc(N2CCN(S(=O)(=O)c3cccc4ccccc34)CC2)cc1Cl	inactive: -0.84%	–

SMILES	activity change, negative = inhibition	Potency
O=C(Nc1cccc(C(F)(F)F)c1)c1cc(CN2CCOCC2)on1	inactive: -12.6%	–
CCCCNC(=O)c1ccc2c(c1)ncn2-c1cc(OC)ccc1OC	inactive: -15.2%	–
Cc1c(Cl)cccc1-n1ncc(C(=O)Nc2ccc(Br)cc2F)c1C1CCNCC1	inactive: -6.29%	–
CCCNc1ccc(-c2nc(-c3ccccn3)no2)cc1[N+](=O)[O-]	inactive: 53.5%	–
COC(=O)c1ccc(NC(=O)CCn2cnnn2)cc1	inactive: -5.65%	–
CCOc1ccccc1CNCc1cccn1-c1nnc(N2CCN(c3ccccc3)CC2)s1	–	active: 25.1 µM
CCN(CCCNC(=O)c1nn(-c2ccc(OC)cc2)c(=O)c2c1c1ccccc1n2C)c1ccccc1	inactive: -7.28%	–
CCc1cccc(NC(=O)CCNS(=O)(=O)c2cccc3nonc23)c1	inactive: -15.6%	–
COc1ccccc1NC(=O)C1=C(C)Nc2nnnn2C1c1ccc(C(F)(F)F)cc1 (stereo not drawn)	inactive: -17%	–
CC(C)(C)CC(=O)NCC(c1ccc2c(c1)OCO2)N1CCN(c2ccccc2)CC1 (stereo not drawn)	inactive: -21.7%	–
CCC(C)NC(=O)Cn1c(=O)n(CCCCCC(=O)NCc2ccccc2Cl)c(=O)c2sccc21 (stereo not drawn)	inactive: -18.2%	–
CC(=O)c1ccc(NC(=O)c2cc(-c3ccc(C)s3)nc3ccccc23)cc1	inactive: 1.62%	–
CCOC(=O)N1CCc2c(sc3c2c(=O)n(CCc2ccccc2)c(=O)n3CC(=O)Nc2ccc(C)cc2)C1	inactive: 3.24%	–
CCOC(=O)c1ccc(NC(=O)CSc2ccc3ccccc3n2)cc1	inactive: 3.34%	–
COc1ccccc1C(=O)NCC(c1cccnc1)N1CCc2ccccc2C1 (stereo not drawn)	inactive: -23.3%	–
Cc1cccc(N2CCN(C(=O)CN3C(=O)CSc4c3c(C)nn4-c3ccccc3)CC2)c1C	inactive: -8.97%	–
CCc1ccc(NC(=O)[C@H](Cc2ccccc2)N2Cc3ccccc3C2=O)cc1	inactive: -13.4%	–
CCOc1ccc(S(=O)(=O)c2c(C(=O)c3ccc(CC)cc3)cnc3ccc(C)cc23)cc1	inactive: -21.1%	–
COc1cc(NC(=O)CCc2c(C)nn(-c3ccc4nnc(C)n4n3)c2C)cc(OC)c1OC	inactive: -1.44%	–
CCOc1ccc(N2CC(NC(=O)c3cccs3)CC2=O)cc1 (stereo not drawn)	inactive: 3.09%	–
CCCN(CCC)CCCNC(=O)c1cc2c(-c3ccc(OC)c(OC)c3)nn(C)c2s1	inactive: -3.5%	–

Source: PubChem BioAssay AID1508623 (National Center for Advancing Translational Sciences (NCATS), 2021)
